{"source": "paper PMC4336329", "about": "(PLoS ONE, 2015)", "note": "Screen size: about 310,000 compounds; about 2,200 (0.71%) showed an effect of 50% or more. The effect is printed as a negative number. Some of the results follow.", "data": [{"target": "human ether-à-go-go-related gene (hERG) potassium channel (human, UniProt Q12809)", "sequence (Q12809 whole entry, looked up)": "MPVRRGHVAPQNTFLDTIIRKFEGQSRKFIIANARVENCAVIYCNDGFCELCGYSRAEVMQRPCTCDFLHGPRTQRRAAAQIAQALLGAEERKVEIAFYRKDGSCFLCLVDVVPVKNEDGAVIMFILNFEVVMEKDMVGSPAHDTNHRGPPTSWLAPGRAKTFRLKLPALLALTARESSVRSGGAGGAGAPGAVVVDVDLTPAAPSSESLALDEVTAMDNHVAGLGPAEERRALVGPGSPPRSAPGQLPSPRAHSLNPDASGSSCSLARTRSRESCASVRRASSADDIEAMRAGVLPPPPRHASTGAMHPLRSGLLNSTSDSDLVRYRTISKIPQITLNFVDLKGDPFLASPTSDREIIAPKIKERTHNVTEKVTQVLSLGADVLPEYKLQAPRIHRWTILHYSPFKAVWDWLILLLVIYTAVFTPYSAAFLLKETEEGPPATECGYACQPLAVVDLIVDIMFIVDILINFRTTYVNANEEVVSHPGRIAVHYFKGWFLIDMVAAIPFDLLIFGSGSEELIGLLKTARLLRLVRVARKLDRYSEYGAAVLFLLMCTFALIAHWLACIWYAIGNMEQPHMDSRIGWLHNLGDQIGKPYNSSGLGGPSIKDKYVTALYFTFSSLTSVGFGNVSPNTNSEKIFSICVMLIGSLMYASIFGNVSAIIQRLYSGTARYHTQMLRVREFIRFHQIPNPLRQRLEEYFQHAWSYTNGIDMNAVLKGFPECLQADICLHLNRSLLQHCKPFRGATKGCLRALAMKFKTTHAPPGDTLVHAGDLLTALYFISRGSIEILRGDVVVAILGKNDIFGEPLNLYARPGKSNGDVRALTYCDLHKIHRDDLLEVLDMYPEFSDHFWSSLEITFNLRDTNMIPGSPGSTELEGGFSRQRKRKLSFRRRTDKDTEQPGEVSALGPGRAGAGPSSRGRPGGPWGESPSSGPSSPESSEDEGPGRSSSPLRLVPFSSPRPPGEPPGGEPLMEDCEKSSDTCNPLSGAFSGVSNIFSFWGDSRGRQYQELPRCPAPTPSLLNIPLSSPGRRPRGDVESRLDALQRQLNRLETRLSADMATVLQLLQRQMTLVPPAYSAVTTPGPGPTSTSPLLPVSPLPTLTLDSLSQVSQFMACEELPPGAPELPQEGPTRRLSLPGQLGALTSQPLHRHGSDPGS", "experiment": "primary screen, population patch clamp on CHO cells stably expressing hERG", "units": {"hERG current change (%, negative = inhibition) at 1uM": "%"}, "values": [{"smiles": "COC(=O)c1ccc(NC(=S)N2CCN(CCO)CC2)cc1", "hERG current change (%, negative = inhibition) at 1uM": 9.6}, {"smiles": "Cn1c2ccc(F)cc2c2ncn(Cc3ccccn3)c(=O)c21", "hERG current change (%, negative = inhibition) at 1uM": -2}, {"smiles": "O=C(CN1C(=O)c2ccccc2S1(=O)=O)NC(Nc1ccccc1F)C(Cl)(Cl)Cl", "note": "(centres unmarked)", "hERG current change (%, negative = inhibition) at 1uM": 6.55}, {"smiles": "CN(C)CC1CCCCC1OC(=O)Cc1ccc(Cl)c([N+](=O)[O-])c1", "note": "(centres unmarked)", "hERG current change (%, negative = inhibition) at 1uM": 10.3}, {"smiles": "CC12CCC(C/C1=N\\OC(=O)c1c(F)cccc1F)C2(C)C", "note": "(centres unmarked)", "hERG current change (%, negative = inhibition) at 1uM": 9.64}, {"smiles": "COC(=O)c1[nH]c(=O)c2ccccc2c1O", "hERG current change (%, negative = inhibition) at 1uM": 15.4}, {"smiles": "CNC(=S)Nc1ccc(OCc2ccccc2)cc1", "hERG current change (%, negative = inhibition) at 1uM": 7.17}, {"smiles": "C#CCN(C(=O)Nc1ccccc1)c1ccccc1", "hERG current change (%, negative = inhibition) at 1uM": 6.39}, {"smiles": "COc1ccc(C(C)(C)C)cc1NC(=O)CCNC(=O)c1ccco1", "hERG current change (%, negative = inhibition) at 1uM": 6.6}, {"smiles": "c1nc2n(n1)C1=C(CCCC1)C1(CCCCC1)N2", "hERG current change (%, negative = inhibition) at 1uM": 9.53}, {"smiles": "COc1cccc2c1OCC/C2=N\\NC(=O)COc1ccccc1C", "hERG current change (%, negative = inhibition) at 1uM": -13.9}, {"smiles": "CCOC(=O)c1c(C)c2c(=O)[nH]cnc2n1-c1ccccc1", "hERG current change (%, negative = inhibition) at 1uM": 9.66}, {"smiles": "Cc1ccccc1-n1c(C)nc2ccccc21", "hERG current change (%, negative = inhibition) at 1uM": -4.05}, {"smiles": "Cc1c(C(=O)O)oc2c(F)cccc12", "hERG current change (%, negative = inhibition) at 1uM": 19.5}, {"smiles": "Cc1ccc(NCCC(=O)c2cccs2)cc1C", "hERG current change (%, negative = inhibition) at 1uM": 5.33}, {"smiles": "C/C(CCC(C)C)=N\\NS(=O)(=O)c1ccc(C)c([N+](=O)[O-])c1", "hERG current change (%, negative = inhibition) at 1uM": -1.92}, {"smiles": "Cc1cc(Br)c(NC(=O)COC(=O)C2CC2C)c(Br)c1", "note": "(centres unmarked)", "hERG current change (%, negative = inhibition) at 1uM": 8.62}, {"smiles": "O=C(NCc1ccco1)C(c1ccco1)N(C(=O)Cn1nnc2ccccc21)c1ccc2c(c1)CCC2", "note": "(centres unmarked)", "hERG current change (%, negative = inhibition) at 1uM": 4.84}, {"smiles": "CC1=CCC2C(=O)N(c3cccc(C(=O)Nc4ccccc4Cl)c3)C(=O)C2C1", "note": "(centres unmarked)", "hERG current change (%, negative = inhibition) at 1uM": 6.69}, {"smiles": "CC(=O)N1CCN(C(=S)NCc2ccccc2)CC1", "hERG current change (%, negative = inhibition) at 1uM": 12.7}, {"smiles": "CCOc1ccccc1NC(=O)C(OC(=O)c1ccc(CC)cc1)c1ccccc1", "note": "(centres unmarked)", "hERG current change (%, negative = inhibition) at 1uM": 4.75}, {"smiles": "CCN(CC)CCC(C)OC(=O)c1ccc(O)cc1O.Cl", "note": "(centres unmarked)", "hERG current change (%, negative = inhibition) at 1uM": -0.912}, {"smiles": "O=C(NCC1(N2CCCCC2)CCCCC1)c1ccc(NS(=O)(=O)c2ccccc2)cc1", "hERG current change (%, negative = inhibition) at 1uM": 5.37}, {"smiles": "CCOC(=O)CNC(=O)COc1coc(CN2CCN(c3ccc(F)cc3)CC2)cc1=O", "hERG current change (%, negative = inhibition) at 1uM": 11.9}, {"smiles": "Cc1nc2sccn2c(=O)c1S(=O)(=O)NCc1ccccc1", "hERG current change (%, negative = inhibition) at 1uM": 9.92}, {"smiles": "O=C(NCCCN1CCCC1)Nc1ccc(F)cc1", "hERG current change (%, negative = inhibition) at 1uM": 6.95}, {"smiles": "O=C(Cn1nnc2ccccc2c1=O)NCc1ccc(Cl)cc1", "hERG current change (%, negative = inhibition) at 1uM": 10.3}, {"smiles": "Oc1ccccc1-c1cc(C(F)(F)C(F)F)nc(-c2ccccc2)n1", "hERG current change (%, negative = inhibition) at 1uM": 7.21}, {"smiles": "CCOC(=O)c1[nH]c2ccc(Br)cc2c1NC(=O)CCN1CCC(C)CC1", "hERG current change (%, negative = inhibition) at 1uM": -36.9}, {"smiles": "CC(C)[C@@H](C(=O)NC1CCCC1)N1C(=O)N2CCc3c([nH]c4ccccc34)[C@@]2(C)C1=O", "hERG current change (%, negative = inhibition) at 1uM": 10.3}, {"smiles": "Cc1ccc(NC(=S)N2CCN(C(=O)C3CCCO3)CC2)cc1", "note": "(centres unmarked)", "hERG current change (%, negative = inhibition) at 1uM": 10.2}, {"smiles": "Cn1cc(CN2CCC(C(=O)N3CCCCC3)CC2)c(-c2ccccc2F)n1", "hERG current change (%, negative = inhibition) at 1uM": 5.6}, {"smiles": "COc1ccc2c(c1)c(=O)oc1cc3occ(C(C)(C)C)c3cc12", "hERG current change (%, negative = inhibition) at 1uM": 0.3}, {"smiles": "CC(C(=O)Nc1ccccn1)c1ccccc1", "note": "(centres unmarked)", "hERG current change (%, negative = inhibition) at 1uM": 12.8}, {"smiles": "CCN1CCCC1CNC(=O)CS(=O)(=O)Cc1nc(-c2ccccc2C)oc1C", "note": "(centres unmarked)", "hERG current change (%, negative = inhibition) at 1uM": 5.36}, {"smiles": "Cc1ccccc1NC(=O)COC(=O)CNC(=O)c1sc2ccccc2c1Cl", "hERG current change (%, negative = inhibition) at 1uM": 11.6}, {"smiles": "O=C(Oc1cccnc1)c1ccccc1[N+](=O)[O-]", "hERG current change (%, negative = inhibition) at 1uM": 7.51}, {"smiles": "CC(=O)OCc1c(COC(C)=O)[n+](=O)c2ccccc2n1[O-]", "hERG current change (%, negative = inhibition) at 1uM": -4.58}, {"smiles": "COC(=O)/C=C/S(=O)(=O)c1ccc(NC(C)=O)cc1", "hERG current change (%, negative = inhibition) at 1uM": 5.47}, {"smiles": "CCOc1cc(S(=O)(=O)n2cnc(C)c2)ccc1Cl", "hERG current change (%, negative = inhibition) at 1uM": 7.15}, {"smiles": "c1ccc(CN=C2Nc3ccccc3CS2)nc1", "hERG current change (%, negative = inhibition) at 1uM": 12.2}, {"smiles": "CC(=O)c1c(-c2ccccc2)c2ccccc2[nH]c1=O", "hERG current change (%, negative = inhibition) at 1uM": 13.5}, {"smiles": "CC(OC(=O)Cc1c[nH]c2ccccc12)C(=O)Nc1ccccc1F", "note": "(centres unmarked)", "hERG current change (%, negative = inhibition) at 1uM": 3.81}, {"smiles": "COc1ccc(CC(=O)OCC(=O)Nc2cc(S(=O)(=O)N3CCOCC3)ccc2N2CCCC2)cc1", "hERG current change (%, negative = inhibition) at 1uM": -3.25}, {"smiles": "COc1cc(O)oc1C=Nc1ccc(Oc2ccccc2)cc1", "hERG current change (%, negative = inhibition) at 1uM": 14.4}, {"smiles": "CCc1cccc2c(C(=O)CSc3nnc(-c4ccncc4)n3C)c[nH]c12", "hERG current change (%, negative = inhibition) at 1uM": 5.13}, {"smiles": "Cn1c(N)c(C(=O)COC(=O)c2ccccn2)c(=O)n(C)c1=O", "hERG current change (%, negative = inhibition) at 1uM": 0.675}, {"smiles": "COc1ccc(CCN(C)C(=O)c2ccc(COc3ccccc3)o2)cc1OC", "hERG current change (%, negative = inhibition) at 1uM": 9.02}, {"smiles": "O=C(NCc1cccc(Br)c1)C1CC(c2ccccc2C(F)(F)F)=NO1", "note": "(centres unmarked)", "hERG current change (%, negative = inhibition) at 1uM": 0.641}, {"smiles": "CSc1ccccc1NC(=O)N1CCCC(C(=O)c2ccc3c(c2)OCO3)C1", "note": "(centres unmarked)", "hERG current change (%, negative = inhibition) at 1uM": 3.41}, {"smiles": "O=C1CCC(c2ccccc2)=NN1Cc1c(F)cccc1Cl", "hERG current change (%, negative = inhibition) at 1uM": 9.84}, {"smiles": "CC(C)C(=O)N1CCN(c2ccc(NC(=O)c3ccc([N+](=O)[O-])o3)cc2)CC1", "hERG current change (%, negative = inhibition) at 1uM": 0.15}, {"smiles": "Cc1cccc(NC(=O)C(=O)N/N=C/c2ccncc2)c1", "hERG current change (%, negative = inhibition) at 1uM": 8.76}, {"smiles": "COc1ccc(C)cc1-n1c(SCC(=O)Nc2cc(C)on2)nc2sc(C)c(C)c2c1=O", "hERG current change (%, negative = inhibition) at 1uM": -1.95}, {"smiles": "S=c1[nH]nc(COc2ccc3c(c2)OCO3)n1-c1ccccc1", "hERG current change (%, negative = inhibition) at 1uM": 12.5}, {"smiles": "Cc1ccc(CCN2CC(C(=O)NCCN3CCCCCC3)CC2=O)cc1", "note": "(centres unmarked)", "hERG current change (%, negative = inhibition) at 1uM": 9.52}, {"smiles": "COc1ccc(C(=O)N/N=C/c2c(CO)cnc(C)c2O)cc1", "hERG current change (%, negative = inhibition) at 1uM": 9.25}, {"smiles": "O=C(Nc1ccc(F)c(Cl)c1)Nc1cnccn1", "hERG current change (%, negative = inhibition) at 1uM": 9.43}, {"smiles": "CCOc1ccc(C(=O)NC(=S)Nc2ccc(N3CCCCC3)cc2)cc1[N+](=O)[O-]", "hERG current change (%, negative = inhibition) at 1uM": 12.1}]}]}
